Data from the supplement of paper PMC4604168 (melanoma cell lines).
This is one part of the list. Single values are uncertain, as repeats are few or missing.

Key:
Experiment in all cases: cell count relative to DMSO control; melanoma cells; higher = more viable cells
Conditions in all cases: library dose: standard library concentration; 72 h
G361 = test system: G361
IPC-298 = test system: IPC-298
IST-MEL1 = test system: IST-MEL1
LB2518-MEL = test system: LB2518-MEL
LOXIMVI = test system: LOXIMVI
MEL-HO = test system: MEL-HO
MZ2-MEL = test system: MZ2-MEL
MeWo = test system: MeWo
RPMI7951 = test system: RPMI7951
RVH-421 = test system: RVH-421
SkMel28 = test system: SkMel28
SkMel2 = test system: SkMel2
SkMel30 = test system: SkMel30
SkMel5 = test system: SkMel5
UACC257 = test system: UACC257
UACC62 = test system: UACC62
WM115 = test system: WM115
WM1716 = test system: WM1716
WM1745 = test system: WM1745
WM3526 = test system: WM3526
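Also: cells treated in 1,536-well plates, then fixed and DAPI-stained, with nuclei counted from automated high-throughput microscope images.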

SMILES	cell count (G361) [%]	cell count (IPC-298) [%]	cell count (IST-MEL1) [%]	cell count (LB2518-MEL) [%]	cell count (LOXIMVI) [%]	cell count (MEL-HO) [%]	cell count (MZ2-MEL) [%]	cell count (MeWo) [%]	cell count (RPMI7951) [%]	cell count (RVH-421) [%]	cell count (SkMel28) [%]	cell count (SkMel2) [%]	cell count (SkMel30) [%]	cell count (SkMel5) [%]	cell count (UACC257) [%]	cell count (UACC62) [%]	cell count (WM115) [%]	cell count (WM1716) [%]	cell count (WM1745) [%]	cell count (WM3526) [%]
Cn1nnc2c(C(N)=O)ncn2c1=O [temozolomide] + O=C(Oc1ccc([N+](=O)[O-])cc1)N1CCC(C(O)(c2ccc3c(c2)OCO3)c2ccc3c(c2)OCO3)CC1 [JZL184] (first compound 10 µM, partner dose 5 µM)	103	74.2	100	62.6	93.6	97.3	79.1	106	102	97.4	34	112	56.8	103	104	55.4	86	52.3	99.7	89.3
O=c1[nH]nc(Sc2ncc([N+](=O)[O-])s2)n1-c1ccc2c(c1)OCCO2 + C[As](C)SC[C@H](NC(=O)CC[C@H](N)C(=O)O)C(=O)NCC(=O)O [Darinaparsin] (first compound 1 µM, partner dose 2 µM)	81.6	88.9	88.2	88.5	69.1	78.1	82.5	62.9	115	92.2	73.1	88	85.1	61.3	77.9	52.4	57.7	58.2	79.9	66
Cn1cnc2c(F)c(Nc3ccc(Br)cc3Cl)c(C(=O)NOCCO)cc21 [selumetinib] + Cn1cc(C2=C(c3cn(C4CCN(Cc5ccccn5)CC4)c4ccccc34)C(=O)NC2=O)c2ccccc21 [Enzastaurin] (first compound 0.075 µM, partner dose 4 µM)	69.6	58.7	69.5	65.6	104	90.4	83.6	73.3	59.3	125	59.8	69.2	75.1	88.2	115	51.8	76.1	67.1	81.3	68.3
O=C(Nc1cccc(Cl)c1)Nc1ncc(CCNc2ncnc3ccsc23)s1 + O=C(Oc1ccc([N+](=O)[O-])cc1)N1CCC(C(O)(c2ccc3c(c2)OCO3)c2ccc3c(c2)OCO3)CC1 [JZL184] (first compound 0.004 µM, partner dose 5 µM)	57.5	56.4	57.8	95.2	81.6	65.1	59.7	45.6	40.2	83.9	37.7	65.4	86.4	68.7	66.3	55.3	29.7	50.6	35.1	42.9
COc1cc([C@@H]2c3cc4c(cc3[C@@H](O[C@@H]3O[C@@H]5CO[C@@H](C)O[C@H]5[C@H](O)[C@H]3O)[C@H]3COC(=O)[C@H]23)OCO4)cc(OC)c1O [etoposide] + Cn1cc(C2=C(c3cn(C4CCN(Cc5ccccn5)CC4)c4ccccc34)C(=O)NC2=O)c2ccccc21 [Enzastaurin] (first compound 0.1 µM, partner dose 4 µM)	105	70.8	120	90.6	97.9	128	96.9	80.9	85.1	86.8	72.1	81.4	96.5	90.7	57.9	42.6	88.4	49.5	92	101
O=C(O)c1ccc(-c2c[nH]c3ncc(-c4ccccc4)cc23)cc1C1CCCC1 + C/C(O)=C(\C#N)C(=O)Nc1cc(Br)ccc1Br [LFM-A13] (first compound 0.8 µM, partner dose 10 µM)	70.1	82.2	89.5	101	77.7	75.1	84	102	77.8	38.4	64	82.6	89	95.2	78.2	98.3	90.7	94.2	68.3	81.2
CCCCCCCCc1ccc(CCC(N)(CO)CO)cc1 [fingolimod] + N.N.[Cl][Pt][Cl] [cisplatin] (first compound 10 µM, partner dose 8 µM)	1.13	43.6	7.69	0.183	18.6	18.8	62.4	45.5	0.741	2.59	20	7.5	8.25	61.4	74.2	20.8	11.6	53.2	17.1	45.6
C[C@]1(O)C[C@@H](c2nc(-c3ccc4ccc(-c5ccccc5)nc4c3)c3c(N)nccn32)C1 + N.N.[Cl][Pt][Cl] [cisplatin] (first compound 2 µM, partner dose 8 µM)	89	98	104	104	74.2	101	107	94.2	70.6	107	77.2	91.6	85.7	106	83	71.5	99.9	125	58.9	82.8
O=C(Nc1cc(C(F)(F)F)cc(C(F)(F)F)c1)c1cc(Cl)ccc1O + N.N.[Cl][Pt][Cl] [cisplatin] (first compound 0.08 µM, partner dose 8 µM)	85	88.7	90.8	109	49.3	82.2	76.8	92	113	81.5	111	109	94.1	97.8	75.5	97.7	98.6	101	83.6	106
